Measurements published in PubChem BioAssay AID686970 (National Center for Advancing Translational Sciences (NCATS), 2013).
Out of some 360,000 compounds screened, about 6,000 (1.7%) were called active. Inconclusive means that the source gave no clear call. Such entries were picked first, then a sample of the others. The call rests on the fitted dose curve; in most records, active means well fitted cell-killing curve with a large enough effect; inconclusive means small, poorly fitted or top-dose-only effect, or effect the other way; inactive means flat fitted curve, though single readings scatter. Potencies of inconclusive entries are left out as doubtful fits.

assay: qHTS for induction of synthetic lethality in tumor cells producing 2HG: qHTS for the HT-1080-NT fibrosarcoma cell line; conditions: HT-1080-NT fibrosarcoma viability, CellTiter-Glo ATP luminescence, 48 h; activity, negative = less viability: at 46.1 µM (top of the series) unless noted;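 further: NT is the 2HG producing partner of a matched IDH1 knockdown line; nearly all actives have a fitted effect of over 55% in size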;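 on activity, negative = less viability: 0% = DMSO-treated cells and -100% = media-only wells without cells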
In short: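 Viability by CellTiter-Glo luminescence after 48 h compound exposure at 37C of HT-1080-NT cells (750/well, RPMI, 5% FBS). % activity scaled between DMSO wells and medium-only wells, then curve-fitted and categorized by curve class.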
Potency means the concentration at half of the fitted maximal effect; tags describe the fitted curve by direction and shape.

Compound | Potency | activity, negative = less viability
CCN(C(=O)COC(=O)c1c2c(nc3ccccc13)/C(=C/c1ccccc1)CC(C)C2)C1CCS(=O)(=O)C1 (configuration not stated) | inconclusive [cytotoxic, single point] | –
CCC[n+]1c2ccccc2cc2ccccc21 | active: 16.4 µM | –
O=C(/C=C/NNC(=O)c1cccc(Br)c1)c1cccc(Br)c1 | inconclusive [cytotoxic, single point] | –
Cc1cccc(/C=N/N(CCO)C2=NS(=O)(=O)c3ccccc32)c1 | inactive | –
COc1ccc(/C=C/C(=O)NC(=S)NNC(=O)Cc2cccs2)cc1 | active: 14.6 µM | –
Cc1cccc(S(=O)(=O)NC(=O)C2(C)CCN2C(=O)c2sccc2C)c1 (configuration not stated) | inactive | –
CCOC(=O)N/N=C/c1ccc(F)cc1 | inactive | –
CC(C)CNC(=O)c1cc2nc3c(c(C(F)(F)F)n2n1)CCc1ccccc1-3 | inconclusive [rising, partial curve, poor fit] | –
O=C(NCCO)c1cccc(-c2cnc3c(Nc4cccc(OC(F)(F)C(F)F)c4)nccn23)c1 | inconclusive [cytotoxic, single point] | –
CC1(Cc2ccc(Cl)cc2)C(=O)Nc2c(Cl)ccc(Cl)c21 (configuration not stated) | – | inconclusive: -71.8%
Cc1cc(NC(=O)CCCS(=O)(=O)c2nc(-c3cccs3)cc(C(F)(F)F)n2)no1 | active: 5.8 µM | –
COC(=O)c1nn(-c2ccccc2)c(=O)cc1Oc1ccccc1 | inactive | –
O=C(/C(=C\c1ccccc1)c1nc2ccccc2[nH]1)c1ccc(Cl)cc1 | active: 3.66 µM | –
CCOc1ccc(C(C)=O)cc1CSc1nnc(N)s1 | inconclusive [rising, single point] | –
Cc1cc(OCCN2CCC(Cc3ccccc3)CC2)ccc1[N+](=O)[O-] | inconclusive [cytotoxic, single point] | –
CCC(C)(C)n1nnnc1C(c1cc2cc(C)cc(C)c2[nH]c1=O)N1CCN(Cc2ccc3c(c2)OCO3)CC1 (configuration not stated) | inactive | –
Cc1ccc(NC(=O)c2cccc(S(=O)(=O)N3CCN(c4ccccc4)CC3)c2)nc1 | inactive | –
COC(CNc1ncnc2c1cnn2C)OC | inconclusive [rising, single point] | –
COc1ccccc1CN1CN(S(=O)(=O)c2ccccc2)c2nc3ccccc3nc21 | inactive | –
Cc1ccc(OCCCCN2CCc3ccccc3C2)cc1 | inactive | –
O=C(NCC(c1ccco1)N1CCOCC1)C1CCCCC1 (configuration not stated) | inactive | –
O=C(NCC(c1ccc(F)cc1)N1CCOCC1)c1ccc([N+](=O)[O-])o1 (configuration not stated) | inconclusive [cytotoxic, single point] | –
O=C(NCCO)c1nc(NCCO)c2ccccc2n1 | inactive | –
N[C@@H](CO)c1nnc([C@H](CCC(=O)O)NC(=O)C2CCNCC2)o1 | inactive | –
CC1CCCCN1S(=O)(=O)c1ccc(NC(=O)c2cccs2)cc1 (configuration not stated) | inconclusive [cytotoxic, single point] | –
CC(=O)NCCNC(=O)CCNC(=O)c1ccc(Cl)cc1 | inactive | –

Compound | Potency | activity, negative = less viability
CC(C)SCCCOc1ccc(C(C)(C)C)cc1 | inactive | –
O=C(CNC1CCCCCC1)c1cccs1 | inactive | –
CCc1nnc(NC(=O)CSc2nnc(Cc3ccccc3)o2)s1 | inconclusive [cytotoxic, single point] | –
CCn1c(=O)c2cc(C(=O)N(C)c3cc(C)ccc3OC)sc2c2ccccc21 | inactive | –
Cc1ccc(-c2nn(C)c(=O)c3ccccc23)cc1S(=O)(=O)N1CCCC1 | inactive | –
Cc1nc(NCc2ccco2)c2c3c(sc2n1)CCC3 | inconclusive [cytotoxic, single point] | –
COc1cc2[nH]c3c(N4CCN(c5ccccn5)CC4)ncnc3c2cc1OC | active: 23.1 µM | –
CCOC(=O)NC(C(Cl)(Cl)Cl)S(=O)(=O)c1ccccc1 (configuration not stated) | inconclusive [cytotoxic, single point] | –
Cc1cc(C)c(C)c(N=Nc2nc3ccccc3n2C)c1C | inconclusive [cytotoxic, single point] | –
COc1cccc(CNC(=O)c2cc(S(=O)(=O)N3CCOCC3)cn2C)c1 | inactive | –
OCCCn1c(C2CCCN2c2nc(-c3ccc(F)cc3)cs2)nc2cc(C(F)(F)F)ccc21 (configuration not stated) | inactive | –
CC(C)CN(CC(C)C)C(=O)c1cccc(S(=O)(=O)N2CCc3ccccc32)c1 | – | inconclusive: -33.6% [cytotoxic]
CC(=O)Oc1ccc2c(C)c(CC(=O)N3CCN(C(=O)C4COc5ccccc5O4)CC3)c(=O)oc2c1C (configuration not stated) | inactive | –
CN1C(=O)c2ccc(NC(=O)c3c(C(=O)O)cccc3[N+](=O)[O-])cc2C1=O | inactive | –
Cc1cc(OCC(O)CNC(C)c2ccccc2)ccc1C(C)C (configuration not stated) | active: 23.1 µM | –
O=C(NCc1ccco1)c1ccc(Br)c(S(=O)(=O)N2CCCCC2)c1 | inconclusive [cytotoxic, single point] | –
O=C(N/N=C/c1cn(-c2ccccc2)nc1-c1cccnc1)c1cccnc1 | inactive | –
Nc1c(C(=O)NCc2ccccc2)c2nc3ccccc3nc2n1CCCN1CCOCC1 | inconclusive [cytotoxic, single point] | –
Clc1ccc2nc(CN3CCCc4ccccc43)cn2c1 | inconclusive [cytotoxic, single point] | –
COc1ccccc1-c1cc(NC=O)c2ncc(-c3ccc(S(C)(=O)=O)cc3)n2c1 | inactive | –
COCCCNC(=S)Nc1ccc2nc(N3CCOCC3)cc(C)c2c1 | inactive | –
CSC(=S)NCc1cccnc1 | inconclusive [cytotoxic, single point] | –
C=CCc1c(C)[nH]c(=S)c(C#N)c1C | inactive | –
O=c1[nH]c(SCc2nc3ccccc3c(=O)n2-c2ccccc2)nc2ccccc12 | inconclusive [cytotoxic, partial curve] | –
C/C(=N\Nc1cc(C)nc(-c2ccccc2O)n1)c1ccccc1O | inactive | –
CN(C)C(=O)c1ccc(NC(=O)c2cccc(S(=O)(=O)N3CCCc4ccccc43)c2)cc1 | inconclusive [cytotoxic, single point] | –
